Assay results from the supplement of paper PMC4967469.
A lower IC50 marks a more sensitive line; a fit beyond the top or the lowest dose is shown as a bound at that dose. For AUC the same curve is integrated over the 256-fold range of doses and scaled to a fraction; it is 1 without any effect and falls as sensitivity rises.

compound: CC[C@H](Nc1ncnc2[nH]cnc12)c1nc2cccc(F)c2c(=O)n1-c1ccccc1 [CAL-101]; test: Viability of human cancer cell lines after 72 h of drug (GDSC screen)
Procedure: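 Human cancer cell lines in 384-well plates, medium with 10% serum, drug for 72 h over a 256-fold dose range (nine 2-fold or five 4-fold steps up to the top dose). Adherent lines were fixed and stained with the nucleic acid dye Syto60, suspension lines read with resazurin; signal relative to control wells, capped at 0 and 100%. One two-parameter sigmoid per drug and line, fitted in a mixed model over all curves with the slope shared within a line.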

Cell Line | AUC | IC50 [µM]
PL18 (pancreas, adherent, top dose 20 µM) | 0.988 | > 20
PL-21 (acute myeloid leukaemia, suspension, top dose 20 µM) | 0.714 | 5.65
PSN1 (pancreas, adherent, top dose 20 µM) | 0.961 | > 20
QGP-1 (pancreas, adherent, top dose 20 µM) | 0.951 | > 20
QIMR-WIL (acute myeloid leukaemia, suspension, top dose 20 µM) | 0.515 | 1.37
RC-K8 (B-cell lymphoma, suspension, top dose 20 µM) | 0.993 | > 20
RCC10RGB (kidney, adherent, top dose 10.24 µM) | 0.943 | > 10.2
RCC-AB (kidney, adherent, top dose 20 µM) | 0.758 | 8.98
RCC-ER (kidney, adherent, top dose 20 µM) | 0.916 | > 20
RCC-FG2 (kidney, adherent, top dose 20 µM) | 0.867 | > 20
RCC-JF (kidney, adherent, top dose 20 µM) | 0.832 | 15
RCC-JW (kidney, adherent, top dose 20 µM) | 0.889 | > 20
RCC-MF (kidney, adherent, top dose 20 µM) | 0.895 | > 20
RCM-1 (large intestine, adherent, top dose 20 µM) | 0.985 | > 20
RD (rhabdomyosarcoma, adherent, top dose 20 µM) | 0.965 | > 20
REH (B-cell leukaemia, suspension, top dose 20 µM) | 0.808 | 9.83
RERF-GC-1B (stomach, adherent, top dose 20 µM) | 0.98 | > 20
RERF-LC-KJ (lung adenocarcinoma, adherent, top dose 20 µM) | 0.965 | > 20
RERF-LC-MS (lung adenocarcinoma, adherent, top dose 20 µM) | 0.971 | > 20
RERF-LC-Sq1 (lung squamous cell carcinoma, adherent, top dose 20 µM) | 0.936 | > 20
RF-48 (stomach, adherent, top dose 20 µM) | 0.786 | 9.74

Cell Line | AUC | IC50 [µM]
RH-1 (rhabdomyosarcoma, adherent, top dose 20 µM) | 0.951 | > 20
RH-18 (rhabdomyosarcoma, adherent, top dose 20 µM) | 0.808 | 12.2
RH-41 (rhabdomyosarcoma, adherent, top dose 20 µM) | 0.992 | > 20
RKN (ovary, adherent, top dose 20 µM) | 0.879 | > 20
RKO (large intestine, adherent, top dose 20 µM) | 0.95 | > 20
RL95-2 (endometrium, adherent, top dose 20 µM) | 0.987 | > 20
RL (B-cell lymphoma, suspension, top dose 20 µM) | 0.908 | > 20
RMG-I (ovary, adherent, top dose 20 µM) | 0.849 | 18.9
RO82-W-1 (thyroid, adherent, top dose 20 µM) | 0.983 | > 20
ROS-50 (B-cell leukaemia, suspension, top dose 20 µM) | 0.975 | > 20
RPMI-2650 (head and neck, adherent, top dose 20 µM) | 0.977 | > 20
RPMI-6666 (Hodgkin lymphoma, suspension, top dose 20 µM) | 0.298 | 0.298
RPMI-7951 (melanoma, adherent, top dose 20 µM) | 0.837 | 12.9
RPMI-8226 (myeloma, suspension, top dose 20 µM) | 0.963 | > 20
RPMI-8402 (T-cell lymphoblastic leukaemia, suspension, top dose 20 µM) | 0.674 | 3.49
RPMI-8866 (chronic myeloid leukaemia, suspension, top dose 20 µM) | 0.973 | > 20
RS4-11 (leukaemia, suspension, top dose 20 µM) | 0.759 | 6.45
RT4 (bladder, adherent, top dose 20 µM) | 0.98 | > 20
RT-112 (bladder, adherent, top dose 20 µM) | 0.958 | > 20
RVH-421 (melanoma, adherent, top dose 20 µM) | 0.862 | > 20
